Reference: PMC6919601, “Identification of Plasmodium dipeptidyl aminopeptidase allosteric inhibitors by high throughput screening” (PLoS ONE, 2019)
In all, about 110,000 compounds went through this assay and about 230 (0.21%) showed an effect of 50% or more. The list shows a part of the results.

biological target: DPAP1 (Plasmodium falciparum, UniProt Q8IIJ9); assay: primary screen, percent inhibition; read by cleavage of a fluorogenic dipeptide substrate; higher = more effect of the substance; set-up: species or system P. falciparum D10 trophozoite lysates; single well
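Note: 30 min substrate incubation versus DMSO and 10 µM JCP410 controls.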

Chain of DPAP1 (Q8IIJ9 whole entry, looked up): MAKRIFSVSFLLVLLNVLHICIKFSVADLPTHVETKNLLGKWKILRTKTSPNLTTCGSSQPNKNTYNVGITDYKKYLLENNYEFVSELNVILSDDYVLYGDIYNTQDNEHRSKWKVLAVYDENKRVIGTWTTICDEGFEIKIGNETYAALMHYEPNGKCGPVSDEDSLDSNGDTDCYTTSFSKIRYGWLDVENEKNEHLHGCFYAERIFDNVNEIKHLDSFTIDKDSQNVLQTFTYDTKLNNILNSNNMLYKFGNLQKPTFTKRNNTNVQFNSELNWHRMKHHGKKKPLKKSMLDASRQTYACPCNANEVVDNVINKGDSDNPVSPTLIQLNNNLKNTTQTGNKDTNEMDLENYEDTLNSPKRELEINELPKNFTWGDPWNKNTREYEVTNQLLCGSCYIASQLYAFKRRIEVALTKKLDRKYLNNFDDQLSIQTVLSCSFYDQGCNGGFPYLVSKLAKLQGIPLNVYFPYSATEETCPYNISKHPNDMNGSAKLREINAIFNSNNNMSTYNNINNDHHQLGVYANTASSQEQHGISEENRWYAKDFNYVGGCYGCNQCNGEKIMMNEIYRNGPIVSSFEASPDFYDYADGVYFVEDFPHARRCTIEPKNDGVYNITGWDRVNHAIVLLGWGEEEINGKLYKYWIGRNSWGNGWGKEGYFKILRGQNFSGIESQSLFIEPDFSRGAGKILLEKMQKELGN

| Compound | % Inhibition @ 10 uM |
| --- | --- |
| COc1ccc(CC(=O)NCc2ccc(C)cc2)cc1 | -5.16% |
| C#CCOc1ccc(C=C2C(=O)OC(c3ccccc3)OC2=O)cc1 (centres unmarked) | 1.52% |
| O=c1cc2c3c(cc(O)cc3o1)OC2 | -1.46% |
| Cc1nc2ncnn2c(C)c1CCC(=O)NCc1ccco1 | -0.465% |
| O=C(c1ccccc1)c1ccc2c(c1)NC(c1ccco1)C1=C(O)CCCC1=N2 (centres unmarked) | -0.68% |
| CN(Cc1ccccc1)C(=O)c1cc(-c2ccc(F)cc2)on1 | -4.79% |
| COCCCN1C(=O)c2ccc3c(=O)n4c5ccc(Cl)cc5nc4c4ccc(c2c34)C1=O | 4.21% |
| O=C(CSc1nc2nccnc2c(=O)n1Cc1ccc(Cl)cc1)NCCc1ccccc1 | -5.99% |
| CN(CCc1ccccn1)Cc1c(Cl)cccc1Cl | 0.472% |
| CC(C)n1c(S)nc2c1c(=O)n(C)c(=O)n2C | 1.37% |
| COc1ccc(CCC(=O)Nc2ccc(C(C)=O)cc2)cc1 | 3.49% |
| CCc1ccc(C2=NN(CCC(=O)NCc3ccc4c(c3)OCO4)C(=O)CC2)cc1 | -0.971% |
| CCOC(=O)c1c(-c2ccccc2)nnn1-c1nc(OCC)nc(N2CCCCC2)n1 | 1.03% |
| CCOc1ccc(NC(=O)Nc2ccccc2)cc1 | 1.48% |
| CC1CCN(C(=O)c2cccc(S(=O)(=O)N3CCCCC3)c2)CC1 | -1.65% |
| CCOc1ccc(-c2cc(C(=O)N3CCOCC3)c3ccccc3n2)cc1 | -2.26% |
| CCC1CCCCN1CCCNC(=O)C1CCCN(S(=O)(=O)N2CC(C)CC(C)C2)C1 (centres unmarked) | -6.75% |
| COc1ccc(OCC(O)Cn2c(N3CCCCCC3)nc3c2c(=O)[nH]c(=O)n3C)cc1 (centres unmarked) | -1.96% |
| O=C(CCCN1C(=O)CSc2ncccc21)N1CCN(Cc2ccccc2)CC1 | -2.37% |
| Cn1c(=O)c2c(nc(Oc3ccc(-n4cnnn4)cc3)n2C)n(C)c1=O | 9.19% |
| CC1CCCCN1S(=O)(=O)c1ccc(C(=O)Nc2ccc(Cl)c(Cl)c2)cc1 (centres unmarked) | 2.65% |

| Compound | % Inhibition @ 10 uM |
| --- | --- |
| Cc1ccc(/C=c2\sc3nc(=O)c(Cc4ccccc4)nn3c2=O)o1 | 0.0069% |
| Cc1ccc(S(=O)(=O)N2CCCCCC2)cc1C(=O)Nc1ccc(Br)cc1 | -8.18% |
| COc1cccc(CNS(=O)(=O)c2ccc(CN3C(=O)c4cccnc4C3=O)cc2)c1 | 5.25% |
| Cc1cccc(C2C(C#N)=C(N)Oc3c2c(=O)oc2ccccc32)c1 (centres unmarked) | 3.1% |
| CCN1CCC(NC23CC4CC(CC(C4)C2)C3)CC1 | 4.74% |
| O=C(Cc1ccccc1)N1CCN(c2ccc([N+](=O)[O-])cc2)CC1 | 2.33% |
| Cc1ccc(Cn2c(=O)c3ccccc3n3c(-c4ccccc4O)nnc23)cc1 | -1.72% |
| CC(C)N(Cc1ccccc1)C(=O)c1ccc([N+](=O)[O-])cc1 | 1.54% |
| CC(CCCC(C)(C)O)NC(C)CCc1ccccc1 (centres unmarked) | -1.82% |
| CCOc1cc(C2c3c(oc4ccccc4c3=O)C(=O)N2c2nnc(C(C)C)s2)ccc1O (centres unmarked) | -2.92% |
| COC(=O)C1=C(C)N(C)C(=O)/C1=C\c1ccc(Cl)cc1Cl | -1.6% |
| Cn1c(-c2cc3ccc(O)cc3oc2=O)nc2ccccc21 | -4.75% |
| O=c1/c(=C/C=C/c2ccccc2)sc2nc(-c3cccc(Cl)c3)nn12 | -2.98% |
| CN1C(=O)c2ccccc2C(C(=O)Nc2cccnc2)C1c1cccs1 (centres unmarked) | 1.64% |
| CCc1cc(=O)oc2c(C)c3c(cc12)CN(Cc1ccccc1OC)CO3 | -8.25% |
| COc1cc2c(cc1OC)C(COc1ccc(F)cc1)N(C(=O)C1CC1)CC2 (centres unmarked) | 2.88% |
| CCOc1ccc(C(=O)CCNC(CC(=O)O)C(=O)O)cc1 (centres unmarked) | 42.3% |
| CCCCCC(=O)NC(C)C(=O)O (centres unmarked) | -5.9% |
| COCCCNc1ncnc2onc(-c3ccc(Cl)cc3)c12 | 1.15% |
| CC1(C)CC2=Nc3ccccc3NC(c3c(Cl)cccc3Cl)C2=C(O)C1 (centres unmarked) | -2.51% |
| CCCOc1cccc(NC(=O)c2cc(CC(C)C)oc2C)c1 | -1.95% |

| Compound | % Inhibition @ 10 uM |
| --- | --- |
| CC1=CC2=NC(=O)/C(=C\c3ccc(OCCCOc4ccccc4)c(Cl)c3)C(=N)N2O1 | 0.317% |
| CC(=O)c1cccc(NC(=O)c2cnn3c(C(F)(F)F)cc(-c4ccccc4)nc23)c1 | 3.56% |
| Cc1cccc(C2N(c3ccccn3)C(=O)C3CCCN32)c1 (centres unmarked) | -0.499% |
| CN(c1ccc(C(=O)NCCSCc2ccco2)cc1)S(C)(=O)=O | -2.76% |
| CCN(CC)C1CC(=O)N(c2ccc(N3C(=O)CC(N(CC)CC)C3=O)cc2)C1=O (centres unmarked) | -7.14% |
| CCCCCc1ccc(S(N)(=O)=O)cc1 | 1.17% |
| CC(C)COc1ccc(C2(CNC(=O)C(c3ccccc3)c3ccccc3)CCCC2)cc1 | 1.88% |
| COc1ccc(C(=O)N2CCCCC2)cc1S(=O)(=O)NC1CCCC1 | -3.34% |
| Cc1ccc(OCC(=O)Nc2ccc(C)c(F)c2)cc1 | 0.727% |
| O=C(c1ccco1)N1CCN(C(=O)c2cccc3c2C(=O)N(C2CCCCC2)C3)CC1 | -4.14% |
| COc1ccc(-c2csc(-c3cccnc3)n2)cc1 | -7.28% |
| N#CC1=C(N)C(C#N)(C#N)[C@@H](c2ccc([N+](=O)[O-])cc2)[C@@H]2CCCC=C12 | 17% |
| O=C(O)c1nc(N2CCOCC2)nc(N2CCOCC2)n1 | -2.75% |
| CN1C(=O)/C(=C\c2c[nH]c3ccccc23)S/C1=N\c1ccccc1 | -1.84% |
| CN1C(=O)C(=Cc2cn(CC(=O)NCc3ccco3)c3ccccc23)C(=O)N(C)C1=O | -4.93% |
| Cc1nn2c(=O)/c(=C/c3ccccc3Cl)sc2nc1=O | -1.75% |
| COc1ccc(C2C3=C(O)CCCC3=Nc3nc(C(F)(F)F)nn32)c(OC)c1OC (centres unmarked) | 1.73% |
| N#CCNC(=O)C1(NC(=O)c2ccc(-c3csc(CN4CCOCC4)n3)cc2)CCCCC1 | 0.173% |
| O=C1CCCN2N=C(SCC(=O)N3N=C(c4cccs4)CC3c3ccc(F)cc3)SC2=N1 (centres unmarked) | 11.6% |
| CCN(CC)C(=O)Cn1c(=O)n(CCCC(=O)NCc2ccc(C)cc2)c(=O)c2sccc21 | -4.43% |
